Patent US4416899A, “Antibiotic BMG162-aF2, a process for production thereof, and antitumor drug containing said new antibiotic as active ingredient” (priority 1980, dated 1983)

Tests used:
[1] = system: Trichophyton asteroides 429; test: Antibacterial activity, agar dilution method (Table 2-3); format: cell-based; conditions: nutrient agar + 1% glucose, 27° C., hydrochloride, read-out: Minimum inhibitory concentration
mouse leukemia L1210 = test: Effect on mouse leukemia L1210 (ip-ip system); conditions: hydrochloride
Aspergillus niger = test: Antibacterial activity, agar dilution method (Table 2-3); format: cell-based; conditions: nutrient agar + 1% glucose, 27° C., hydrochloride, read-out: Minimum inhibitory concentration
Erwinia aroideae = test: Antibacterial activity, agar dilution method (Table 2-2); conditions: Pectobacterium carotovorum, read-out: Minimum inhibitory concentration
[2] = system: Micrococcus lysodeikticus IFO3333; test: Antibacterial activity, agar dilution method (Table 2-1); format: cell-based; conditions: Micrococcus luteus, nutrient agar, 37° C., hydrochloride, read-out: Minimum inhibitory concentration
Salmonella enteritidis = test: as above; format: cell-based; conditions: Salmonella enterica, nutrient agar, 37° C., hydrochloride, read-out: Minimum inhibitory concentration
Escherichia coli K-12 = test: as above; format: cell-based; conditions: K12, nutrient agar, 37° C., hydrochloride, read-out: Minimum inhibitory concentration
[3] = system: Corynebacterium bovis 1810; test: as above; format: cell-based; conditions: nutrient agar, 37° C., hydrochloride, read-out: Minimum inhibitory concentration
Escherichia coli NIHJ = test: as above; format: cell-based; conditions: nutrient agar, 37° C., hydrochloride, read-out: Minimum inhibitory concentration
[4] = system: Proteus mirabilis IFM OM-9; test: as above; format: cell-based; conditions: IFMOM9, nutrient agar, 37° C., hydrochloride, read-out: Minimum inhibitory concentration
[5] = system: Candida pseudotropicalis NI7494; test: Antibacterial activity, agar dilution method (Table 2-3); format: cell-based; conditions: Kluyveromyces marxianus, nutrient agar + 1% glucose, 27° C., hydrochloride, read-out: Minimum inhibitory concentration
[6] = system: Pellicularia filamentosa sasakii; test: as above; format: cell-based; conditions: nutrient agar + 1% glucose, 27° C.; hydrochloride; read-out: Minimum inhibitory concentration
[7] = system: Shigella dysenteriae JS11910; test: Antibacterial activity, agar dilution method (Table 2-1); format: cell-based; conditions: JS11910, read-out: Minimum inhibitory concentration
Micrococcus flavus FDA16 = test: as above; format: cell-based; conditions: nutrient agar, 37° C., hydrochloride, read-out: Minimum inhibitory concentration
[8] = system: Pseudomonas aeruginosa A3; test: as above; format: cell-based; conditions: nutrient agar, 37° C., hydrochloride, read-out: Minimum inhibitory concentration
Candida tropicalis F-1 = test: Antibacterial activity, agar dilution method (Table 2-3); format: cell-based; conditions: F1, nutrient agar + 1% glucose, 27° C., hydrochloride, read-out: Minimum inhibitory concentration
Vibrio anguillarum NCBM6 = test: Antibacterial activity, agar dilution method (Table 2-2); conditions: NCBM6, read-out: Minimum inhibitory concentration
Serratia marcescens = test: Antibacterial activity, agar dilution method (Table 2-1); format: cell-based; conditions: nutrient agar, 37° C., hydrochloride, read-out: Minimum inhibitory concentration
[9] = system: Mycobacterium smegmatis ATCC 607; test: as above; format: cell-based; conditions: Mycolicibacterium smegmatis, ATCC607; nutrient agar, 37° C.; hydrochloride; read-out: Minimum inhibitory concentration
[10] = system: Klebsiella pneumoniae PCI602; test: as above; format: cell-based; conditions: nutrient agar, 37° C., hydrochloride, read-out: Minimum inhibitory concentration
Cryptococcus neogormans = test: Antibacterial activity, agar dilution method (Table 2-3); format: cell-based; conditions: nutrient agar + 1% glucose, 27° C., hydrochloride, read-out: Minimum inhibitory concentration
Pseudomonas fluorescens = test: Antibacterial activity, agar dilution method (Table 2-2); conditions: read-out: Minimum inhibitory concentration
[11] = system: Bacillus cereus ATCC 10702; test: Antibacterial activity, agar dilution method (Table 2-1); format: cell-based; conditions: ATCC10702, nutrient agar, 37° C., hydrochloride, read-out: Minimum inhibitory concentration
[12] = Stability / hydroscopicity; format: physicochemical; conditions: free base form
[13] = system: Staphylococcus aureus FDA209P; test: Antibacterial activity, agar dilution method (Table 2-1); format: cell-based; conditions: nutrient agar, 37° C., hydrochloride, read-out: Minimum inhibitory concentration
Candida albicans 3147 = test: Antibacterial activity, agar dilution method (Table 2-3); format: cell-based; conditions: nutrient agar + 1% glucose, 27° C., hydrochloride, read-out: Minimum inhibitory concentration
Proteus rettgeri GN466 = test: Antibacterial activity, agar dilution method (Table 2-1); format: cell-based; conditions: Providencia rettgeri, nutrient agar, 37° C., hydrochloride, read-out: Minimum inhibitory concentration
Proteus rettgeri GN311 = test: as above; format: cell-based; conditions: Providencia rettgeri, nutrient agar, 37° C., hydrochloride, read-out: Minimum inhibitory concentration
Escherichia coli ML1629 = test: as above; format: cell-based; conditions: nutrient agar, 37° C., hydrochloride, read-out: Minimum inhibitory concentration

N=C(N)NCCCCC(O)CC(=O)NC(O)C(=O)NCCCCNCCCN (centres unmarked) [BMG162-aF2]
MIC [1]: > 100 µg/mL | effect on mouse leukemia L1210 (mouse leukemia L1210): remarkable effects of cure and elongation of survival period | MIC (Aspergillus niger): 100 µg/mL | MIC (Erwinia aroideae): 50 µg/mL (≈ 124 µM) | MIC [2]: 100 µg/mL (≈ 248 µM) | MIC (Salmonella enteritidis): > 100 µg/mL | MIC (Escherichia coli K-12): 100 µg/mL (≈ 248 µM) | MIC [3]: 50 µg/mL (≈ 124 µM) | MIC (Escherichia coli NIHJ): > 100 µg/mL | MIC [4]: > 100 µg/mL | MIC [5]: > 100 µg/mL | MIC [6]: > 100 µg/mL | MIC [7]: 100 µg/mL (≈ 248 µM) | MIC (Micrococcus flavus FDA16): 25 µg/mL (≈ 62 µM) | MIC [8]: > 100 µg/mL | MIC (Candida tropicalis F-1): > 100 µg/mL | MIC (Vibrio anguillarum NCBM6): 50 µg/mL (≈ 124 µM) | MIC (Serratia marcescens): > 100 µg/mL | MIC [9]: > 100 µg/mL | MIC [10]: > 100 µg/mL | MIC (Cryptococcus neogormans): > 100 µg/mL | MIC (Pseudomonas fluorescens): > 100 µg/mL | MIC [11]: > 100 µg/mL | stability [12]: unstable in the form of the free base | MIC [13]: 100 µg/mL (≈ 248 µM) | MIC (Candida albicans 3147): > 100 µg/mL | MIC (Proteus rettgeri GN466): > 100 µg/mL | MIC (Proteus rettgeri GN311): > 100 µg/mL | MIC (Escherichia coli ML1629): > 100 µg/mL

Converted amounts (≈) assume the structure as drawn.
